Reference: publication PMC4336329 (PLoS ONE, 2015)
Hit rate of the full screen: of about 310,000 compounds, about 14,000 (4.5%) showed an effect of 50% or more. Effects have a minus sign here. The list shows a part of the results.

What follows are molecules tested against human ether-à-go-go-related gene (hERG) potassium channel (human, UniProt Q12809) (assay: primary screen, population patch clamp on CHO cells stably expressing hERG).
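Note: peak tail current of the secondary pulse compared with the same well before compound.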

human ether-à-go-go-related gene (hERG) potassium channel, sequence (Q12809 whole entry, looked up): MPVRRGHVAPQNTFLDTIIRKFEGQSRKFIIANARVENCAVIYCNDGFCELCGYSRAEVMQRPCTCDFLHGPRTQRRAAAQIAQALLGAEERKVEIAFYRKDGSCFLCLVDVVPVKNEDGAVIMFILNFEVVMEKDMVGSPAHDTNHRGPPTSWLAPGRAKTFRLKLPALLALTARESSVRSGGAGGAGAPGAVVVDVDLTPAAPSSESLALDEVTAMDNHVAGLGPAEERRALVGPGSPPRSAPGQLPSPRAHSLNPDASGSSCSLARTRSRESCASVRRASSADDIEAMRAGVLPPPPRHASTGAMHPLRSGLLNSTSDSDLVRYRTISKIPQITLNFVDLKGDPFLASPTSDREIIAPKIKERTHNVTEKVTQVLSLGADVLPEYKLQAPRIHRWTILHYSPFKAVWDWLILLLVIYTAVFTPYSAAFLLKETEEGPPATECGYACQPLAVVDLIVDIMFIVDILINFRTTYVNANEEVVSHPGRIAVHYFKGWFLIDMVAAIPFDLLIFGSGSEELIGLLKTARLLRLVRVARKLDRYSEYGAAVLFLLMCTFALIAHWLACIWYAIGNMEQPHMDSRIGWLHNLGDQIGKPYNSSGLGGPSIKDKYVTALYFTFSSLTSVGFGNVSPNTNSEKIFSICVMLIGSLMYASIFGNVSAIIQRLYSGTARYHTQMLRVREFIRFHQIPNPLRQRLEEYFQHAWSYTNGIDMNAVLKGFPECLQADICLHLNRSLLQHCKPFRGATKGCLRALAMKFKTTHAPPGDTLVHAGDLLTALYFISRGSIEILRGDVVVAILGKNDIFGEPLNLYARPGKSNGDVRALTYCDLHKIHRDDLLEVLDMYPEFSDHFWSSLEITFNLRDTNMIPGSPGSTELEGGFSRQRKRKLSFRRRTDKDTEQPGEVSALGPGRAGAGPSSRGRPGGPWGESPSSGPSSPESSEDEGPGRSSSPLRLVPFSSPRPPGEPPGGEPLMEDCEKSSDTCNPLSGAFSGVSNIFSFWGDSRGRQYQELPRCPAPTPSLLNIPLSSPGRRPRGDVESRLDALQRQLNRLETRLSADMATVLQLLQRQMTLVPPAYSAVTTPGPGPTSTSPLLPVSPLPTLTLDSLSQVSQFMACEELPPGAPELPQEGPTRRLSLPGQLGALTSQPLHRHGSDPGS

Structure (SMILES)	hERG current change (%, negative = inhibition) at 10uM [%]
COc1ccccc1CCc1nnc(CCC(=O)NC(C)Cn2nc(C)cc2C)o1 (centres unmarked)	6.48
CN(C)S(=O)(=O)c1ccc(Cl)c(NC(=O)COC(=O)CCSc2ccccc2)c1	1.82
Cc1cc(C)n2nc(SCC(=O)c3cccs3)nc2n1	8.53
CCCn1nc(Oc2nc(N(C)C)nc(N(C)C)n2)ccc1=O	16.3
CCOc1ccc(NC(=O)c2c(OC)cccc2OC)cc1	-16.7
CN1CCC(=NNC(=O)CN(c2ccc([N+](=O)[O-])cc2)S(=O)(=O)c2ccccc2)CC1	-39.7
CSc1ccc(CN(C)CC(=O)Nc2ccccc2C(=O)NC2CC2)cc1	-39
COC(=O)c1sccc1NC(=O)CN(C)NS(=O)(=O)c1ccc(F)cc1	-3.4
COc1ccc(NC(=O)CCCC2CCCCC2)cc1S(=O)(=O)N1CCCCC1	-6.47
Cc1cc(C)c(C(N)=O)c(Nc2cccc3ccccc23)n1	8.73
CC1CCCCN1CCn1c(=S)[nH]c2cc3c(cc2c1=O)OCO3 (centres unmarked)	-29
O=C(Nc1nc(-c2ccccn2)cs1)C1CCCC1	-6.58
CCN(CC)C(=O)CSc1ncnc2c(-c3ccc(OC)cc3)nsc12	30
Cc1ccsc1-c1n[nH]c(=S)n1C1CCCCC1	14.6
Cc1ccc(NC(=O)CCC(=O)N/N=C/c2ccc([N+](=O)[O-])o2)cc1C	-14.9
O=C(O)Cn1c(-c2cscn2)nc2ccccc21	3.99
COC(=O)C1=C(CSc2nc3ccccc3s2)NC(=O)NC1c1ccc(F)cc1 (centres unmarked)	12.2
O=C(O)c1ccc(-c2ccccc2C(F)(F)F)o1	7.73
COc1ccc(N(CC(=O)N/N=C(\C)c2ccccc2)S(=O)(=O)c2ccccc2)cc1	13.2
O=C(CS(=O)(=O)c1ccccc1)N1CCCCC1	-0.275
Cc1ccc(NC(=O)C(C)N2C(=O)c3ccccc3C2=O)c(C)c1 (centres unmarked)	5.19
O=C(CC1CC2CCC1C2)N1CCN(S(=O)(=O)c2ccccc2[N+](=O)[O-])CC1 (centres unmarked)	-24.8

Structure (SMILES)	hERG current change (%, negative = inhibition) at 10uM [%]
COc1cccc(OCc2cc(C(=O)N(C)C3CC(C)(C)NC(C)(C)C3)no2)c1	-25
CC(C)(C)C1CCC(=NNC(=O)C(=O)NCc2cccnc2)CC1 (centres unmarked)	-1.21
CC(NC(=O)CSc1nc(=O)cc(N)n1-c1ccccc1)c1ccccc1 (centres unmarked)	8.17
CCS(=O)(=O)c1nc(S(=O)(=O)c2ccc(Cl)cc2)c(NCCOC)s1	9.19
CCOC(=O)c1c(NC(=O)/C=C/C(=O)O)sc(C)c1-c1ccc(C(C)(C)C)cc1	24
O=C(NC1(C(F)(F)F)C(=O)Nc2c1c(=O)[nH]c(=O)n2Cc1ccccc1)c1ccc(Cl)cc1Cl (centres unmarked)	21
COc1ccc(/C=C/C(=O)Nc2cc(=O)n(C)c(=O)n2C)cc1	-14.5
COc1ccc(C)cc1S(=O)(=O)N(CC(=O)Nc1ccc2c(c1)OCCO2)Cc1ccccc1	0.77
CCC(=O)Nc1nnc(-c2ccc(OC)cc2)o1	5.1
O=C(NCc1ccc2c(c1)OCO2)c1ccc2c(c1)N(Cc1c(F)cccc1Cl)C(=O)CS2	9.51
COc1ccc(NC(=O)c2cnc(SC)nc2)cc1	4.75
COC(=O)c1cc2c(s1)-c1ccccc1OC2	0.157
COc1cc(OC)cc(C(=O)Nc2nnc(-c3cccnc3)o2)c1	5.59
C=CCN1C=C2C(=O)C(C)(OC(=O)CC)C(=O)C=C2C=C1CCCC (centres unmarked)	-5.39
CC(=O)N1CCN=C1SCc1cccc(C)c1	2.5
COc1cc(NC(=O)COC(=O)CCCC2=NS(=O)(=O)c3ccccc3N2)cc(OC)c1	14.4
N#CCC(=O)Nn1c(=S)[nH]c2ccccc2c1=O	18.5
COc1ccc([N+](=O)[O-])cc1-c1[nH]c(-c2ccc(C(=O)O)cc2)nc1-c1ccccc1	3.16
Cc1ccc(Nc2ncnc3c2cnn3C)c(C)c1	7.14
COc1cccc(-c2c(-c3cc(OC)cc(OC)c3)n(C)c3ccc(-c4ccc5[nH]ccc5c4)cc23)c1	20.1
Cc1cc(NC(=O)CSc2nc(C(C)C)nc3sc4c(c23)CCC(C)C4)no1 (centres unmarked)	2.06
CC1CCCN(C(=O)c2ccc3nc[nH]c3c2)C1 (centres unmarked)	11.5
